Assay results taken from patent US11618753B2 (priority 2018, dated 2023).

What follows are molecules tested on MLKL phosphorylation, HT29-L23 human colorectal adenocarcinoma cells (assay: cells). Conditions: read-out: pMLKL HCS Cell Assay (IC50, uM).
`Cc1nc(C(=O)N2C[C@H](F)[C@H](NC(=O)c3cc(-c4cc(C(F)(F)F)c5c(N)ncnn45)ccc3C)C2)co1` [Example 1040, 5-[4-amino-5-(trifluoromethyl)pyrrolo[2,1-f][1,2,4]triazin-7-yl]-N-[(3R,4S)-4-fluoro-1-(2-methyl-1,3-oxazole-4-carbonyl)pyrrolidin-3-yl]-2-methylbenzamide] showed an IC50 of 0.058 µM.
Work on `Nc1ncnn2c(-c3ccc(OC(F)(F)F)c(C(=O)N[C@@H]4CN(C(=O)C5CC5(F)F)C[C@@H]4F)c3)cc(C(F)(F)F)c12` (stereo partly drawn) [Example 1059, 5-[4-amino-5-(trifluoromethyl)pyrrolo[2,1-f][1,2,4]triazin-7-yl]-N-[(3R,4S)-1-(2,2-difluorocyclopropanecarbonyl)-4-fluoropyrrolidin-3-yl]-2-(trifluoromethoxy)benzamide] yielded an IC50 of 0.248 µM.
`Cc1ccc(-c2cc(C(F)(F)F)c3c(N)ncnn23)c(F)c1C(=O)N[C@@H]1CN(C(=O)C2CC(F)(F)C2)C[C@@H]1F` [Example 750, 3-[4-amino-5-(trifluoromethyl)pyrrolo[2,1-f][1,2,4]triazin-7-yl]-N-[(3R,4S)-1-(3,3-difluorocyclobutanecarbonyl)-4-fluoropyrrolidin-3-yl]-2-fluoro-6-methylbenzamide] showed an IC50 of 0.0025 µM.
`COc1ncc(-c2cc(C(F)(F)F)c3c(N)ncnn23)cc1C(=O)N[C@@H]1CN(S(=O)(=O)c2ccc(C)c(C)c2)C[C@@H]1F` [Example 1469, 5-[4-amino-5-(trifluoromethyl)pyrrolo[2,1-f][1,2,4]triazin-7-yl]-N-[(3R,4S)-1-(3,4-dimethylbenzenesulfonyl)-4-fluoropyrrolidin-3-yl]-2-methoxypyridine-3-carboxamide] showed an IC50 of 0.212 µM.
`COc1ccc(-c2cc(C(F)(F)F)c3c(N)ncnn23)cc1C(=O)NCc1ccccc1OCC1CC1` [Example 163, 5-[4-amino-5-(trifluoromethyl)pyrrolo[2,1-f][1,2,4]triazin-7-yl]-N-{[2-(cyclopropylmethoxy)phenyl]methyl}-2-methoxybenzamide] showed an IC50 of 0.17 µM.
`COc1ncc(-c2cc(C(F)(F)F)c3c(N)ncnn23)cc1C(=O)N[C@@H]1CN(C(=O)OC2CCC2)C[C@@H]1F` [Example 1448, cyclobutyl (3R,4S)-3-{5-[4-amino-5-(trifluoromethyl)pyrrolo[2,1-f][1,2,4]triazin-7-yl]-2-methoxypyridine-3-amido}-4-fluoropyrrolidine-1-carboxylate] was tested, and the IC50 was 0.0015 µM.
`Nc1ncnn2c(-c3ccc(OC(F)F)c(C(=O)N[C@@H]4CN(C(=O)CC(C(F)(F)F)C(F)(F)F)C[C@@H]4F)c3)cc(C(F)(F)F)c12` [Example 1081, 5-[4-amino-5-(trifluoromethyl)pyrrolo[2,1-f][1,2,4]triazin-7-yl]-2-(difluoromethoxy)-N-[(3R,4S)-4-fluoro-1-[4,4,4-trifluoro-3-(trifluoromethyl)butanoyl]pyrrolidin-3-yl]benzamide] showed an IC50 of 0.0072 µM.
Work on `CCC(O)(C(=O)N1C[C@H](F)[C@H](NC(=O)c2ccc(F)c(-c3cc(C(F)(F)F)c4c(N)ncnn34)c2)C1)C(F)(F)F` (stereo partly drawn) [Example 889, 3-[4-amino-5-(trifluoromethyl)pyrrolo[2,1-f][1,2,4]triazin-7-yl]-4-fluoro-N-[(3R,4S)-4-fluoro-1-[2-hydroxy-2-(trifluoromethyl)butanoyl]pyrrolidin-3-yl]benzamide] yielded an IC50 of 0.012 µM.
Work on `Nc1ncnn2c(-c3ccc(Cl)c(C(=O)N[C@@H]4CN(C(=O)C5CC5(F)F)C[C@@H]4F)c3)cc(C(F)(F)F)c12` (stereo partly drawn) [Example 937, 5-[4-amino-5-(trifluoromethyl)pyrrolo[2,1-f][1,2,4]triazin-7-yl]-2-chloro-N-[(3R,4S)-1-(2,2-difluorocyclopropanecarbonyl)-4-fluoropyrrolidin-3-yl]benzamide] yielded an IC50 of 0.0045 µM.
Work on `Cc1ncc(-c2cc(C(F)(F)F)c3c(N)ncnn23)cc1C(=O)N1CC(O)CC(O)(Cc2ccc(F)cc2)C1` (stereo not shown) [Example 1750, (5-(4-amino-5-(trifluoromethyl)pyrrolo[2,1-f][1,2,4]triazin-7-yl)-2-methylpyridin-3-yl)(3-(4-fluorobenzyl)-3,5-dihydroxypiperidin-1-yl)methanone] yielded an IC50 of 0.194 µM.
`COc1ncc(-c2cc(C(F)(F)F)c3c(N)ncnn23)cc1C(=O)N[C@@H]1CN(C(=O)CC(O)(C(F)(F)F)C(F)(F)F)C[C@@H]1F` [Example 1220, 5-[4-amino-5-(trifluoromethyl)pyrrolo[2,1-f][1,2,4]triazin-7-yl]-N-[(3R,4S)-4-fluoro-1-[4,4,4-trifluoro-3-hydroxy-3-(trifluoromethyl)butanoyl]pyrrolidin-3-yl]-2-methoxypyridine-3-carboxamide] gave an IC50 of 0.0023 µM.
Work on `COc1ncc(-c2cc(C(F)(F)F)c3c(N)ncnn23)cc1C(=O)NCC(C)(O)C(O)c1ccc(F)cc1` (stereo not shown) [Example 1743, 5-(4-amino-5-(trifluoromethyl)pyrrolo[2,1-f][1,2,4]triazin-7-yl)-N-(3-(4-fluorophenyl)-2,3-dihydroxy-2-methylpropyl)-2-methoxynicotinamide] yielded an IC50 of 0.036 µM.
In the case of `COc1ncc(-c2cc(C(F)(F)F)c3c(N)ncnn23)cc1C(=O)N[C@H]1CCN(C(=O)c2ccccc2)C1` [Example 121, 5-[4-amino-5-(trifluoromethyl)pyrrolo[2,1-f][1,2,4]triazin-7-yl]-N-[(3S)-1-benzoylpyrrolidin-3-yl]-2-methoxypyridine-3-carboxamide], the IC50 is reported as 0.13 µM.
In the case of `Cc1c(F)cc(-c2cc(C(F)(F)F)c3c(N)ncnn23)cc1C(=O)N[C@@H]1CN(C(=O)CC(C)(O)C(F)(F)F)C[C@@H]1F` (stereo partly drawn) [Example 1318, 5-[4-amino-5-(trifluoromethyl)pyrrolo-[2,1-f][1,2,4]triazin-7-yl]-3-fluoro-N-[(3R,4S)-4-fluoro-1-(4,4,4-trifluoro-3-hydroxy-3-methylbutanoyl)pyrrolidin-3-yl]-2-methylbenzamide], the IC50 is reported as 0.0036 µM.
`CC(C(=O)N1C[C@H](F)[C@H](NC(=O)c2cc(-c3cc(C(F)(F)F)c4c(N)ncnn34)ccc2Cl)C1)C(F)(F)F` (stereo partly drawn) [Example 940, 5-[4-amino-5-(trifluoromethyl)pyrrolo[2,1-f][1,2,4]triazin-7-yl]-2-chloro-N-[(3R,4S)-4-fluoro-1-(3,3,3-trifluoro-2-methylpropanoyl)pyrrolidin-3-yl]benzamide] showed an IC50 of 0.003 µM.
`COc1ncc(-c2cc(C(F)(F)F)c3c(N)ncnn23)cc1C(=O)N[C@H]1C[C@@H](COCc2ccccc2)N(C(=O)C2CC(F)(F)C2)C1` [Example 1701, 5-(4-amino-5-(trifluoromethyl)pyrrolo[2,1-f][1,2,4]triazin-7-yl)-N-((35,55)-5-((benzyloxy)methyl)-1-(3,3-difluorocyclobutane-1-carbonyl)pyrrolidin-3-yl)-2-methoxynicotinamide] showed an IC50 of 0.377 µM.
`Cc1cc(F)c(-c2cc(C(F)(F)F)c3c(N)ncnn23)cc1C(=O)N[C@@H]1CN(C(=O)c2cc(F)c(F)cc2Cl)C[C@@H]1F` [Example 808, 5-[4-amino-5-(trifluoromethyl)pyrrolo[2,1-f][1,2,4]triazin-7-yl]-N-[(3R,4S)-1-(2-chloro-4,5-difluorobenzoyl)-4-fluoropyrrolidin-3-yl]-4-fluoro-2-methylbenzamide] was tested, and the IC50 was 0.025 µM.
`Cc1ncc(-c2cc(C(F)(F)F)c3c(N)ncnn23)cc1C(=O)N[C@@H]1CN(CC(O)C(F)(F)F)C[C@@H]1F` (stereo partly drawn) [Example 430, 5-[4-amino-5-(trifluoromethyl)pyrrolo [2,1-f][1,2,4]triazin-7-yl]-N-[(3R,4S)-4-fluoro-1-(3,3,3-trifluoro-2-hydroxypropyl)pyrrolidin-3-yl]-2-methylpyridine-3-carboxamide] gave an IC50 of 0.022 µM.
With `Cc1cc(F)c(-c2cc(C(F)(F)F)c3c(N)ncnn23)cc1C(=O)N[C@@H]1CN(C(=O)c2ncc(C(F)(F)F)cc2F)C[C@@H]1F` [Example 850, 5-[4-amino-5-(trifluoromethyl)pyrrolo[2,1-f][1,2,4]triazin-7-yl]-4-fluoro-N-[(3R,4S)-4-fluoro-1-[3-fluoro-5-(trifluoromethyl)pyridine-2-carbonyl]pyrrolidin-3-yl]-2-methylbenzamide] the IC50 was 0.248 µM.
In the case of `COc1ncc(-c2cc(C(F)(F)F)c3c(N)ncnn23)cc1C(=O)Nc1cn(Cc2ccc(C(F)(F)F)cc2)cn1` [Example 1804, 5-(4-amino-5-(trifluoromethyl)pyrrolo[2,1-f][1,2,4]triazin-7-yl)-2-methoxy-N-(1-(4-(trifluoromethyl)benzyl)-1H-imidazol-4-yl)nicotinamide], the IC50 is reported as 0.42 µM.
`COc1ncc(-c2cc(C(F)(F)F)c3c(N)ncnn23)cc1C(=O)Nc1nnc(Cc2ccccc2)o1` [Example 1685, 5-(4-amino-5-(trifluoromethyl)pyrrolo[2,1-f][1,2,4]triazin-7-yl)-N-(5-benzyl-1,3,4-oxadiazol-2-yl)-2-methoxynicotinamide] was tested, and the IC50 was 0.478 µM.
Molecule `COc1cc(F)c(-c2cc(C(F)(F)F)c3c(N)ncnn23)cc1C(=O)N[C@@H]1CN(C(=O)C2CCC(F)(F)C2)C[C@@H]1F` (stereo partly drawn) [Example 871, 5-[4-amino-5-(trifluoromethyl)pyrrolo[2,1-f][1,2,4]triazin-7-yl]-N-[(3R,4S)-1-(3,3-difluorocyclopentanecarbonyl)-4-fluoropyrrolidin-3-yl]-4-fluoro-2-methoxybenzamide] has an IC50 of 0.0062 µM.
In the case of `CCc1ccc(-c2cc(C(F)(F)F)c3c(N)ncnn23)cc1C(=O)N[C@@H]1CN(C(=O)C(C)(C)F)C[C@@H]1F` [Example 965, 5-[4-amino-5-(trifluoromethyl)pyrrolo[2,1-f][1,2,4]triazin-7-yl]-2-ethyl-N-[(3R,4S)-4-fluoro-1-(2-fluoro-2-methylpropanoyl)pyrrolidin-3-yl]benzamide], the IC50 is reported as 0.01 µM.
In the case of `Cc1cc(F)c(-c2cc(C(F)(F)F)c3c(N)ncnn23)cc1C(=O)N[C@@H]1CN(C(=O)[C@@H](O)C(F)(F)F)C[C@@H]1F` [Example 415, 5-[4-amino-5-(trifluoromethyl)pyrrolo[2,1-f][1,2,4]triazin-7-yl]-4-fluoro-N-[(3R,4S)-4-fluoro-1-[(2R)-3,3,3-trifluoro-2-hydroxy-propanoyl]pyrrolidin-3-yl]-2-methylbenzamide], the IC50 is reported as 0.018 µM.
Molecule `CC#CCOC(=O)N1C[C@H](F)[C@H](NC(=O)c2cc(-c3cc(C(F)(F)F)c4c(N)ncnn34)cnc2OC)C1` [Example 1438, but-2-yn-1-yl (3R,4S)-3-{5-[4-amino-5-(trifluoromethyl)pyrrolo[2,1-f][1,2,4]triazin-7-yl]-2-methoxypyridine-3-amido}-4-fluoropyrrolidine-1-carboxylate] has an IC50 of 0.136 µM.
